In experiment [1] the target is 53BP1 as used in Supplementary Fig. 1a (UniProt Q12888). As to the kind of experiment: co-IP; 53BP1 immunoprecipitated with full-length or deletion mutants of PP4R3β (Supplementary Fig. 1a); cells and bait not stated in the text shown; NETN lysis buffer.
For experiment [2], the target named is FLAG-53BP1 (UniProt Q12888). Briefly: co-IP; HeLa transiently transfected with FLAG-53BP1 and Myc-PP4R3β constructs, left asynchronous (Asyn); whole cell extracts, FLAG IP, immunoblot; NETN buffer.
The target in experiment [3] is FLAG-53BP1 (UniProt Q12888). As to the kind of experiment: co-IP; HeLa transiently transfected with FLAG-53BP1 and Myc-PP4R3β constructs, synchronized to prometaphase (M) with nocodazole; whole cell extracts, FLAG IP, immunoblot; NETN buffer. (Immunoblotting shows a protein as a band on a membrane.)
In experiment [4] the target is 53BP1, endogenous in A375-AS cells (human (endogenous in A375)) (UniProt Q12888). As to the kind of experiment: condition: only A375-AS cells treated with 1NMPP1 (CDK5 inhibited); co-IP; Endogenous 53BP1 immunoprecipitated from 1NMPP1-treated A375-AS cells (CDK5 inhibited) at time points after release from prometaphase arrest; immunoblot for endogenous PP4R3β.
Experiment [5] has the same target. Briefly: co-IP; Endogenous 53BP1 immunoprecipitated from DMSO-treated A375-AS cells at time points after release from prometaphase arrest; immunoblot for endogenous PP4R3β.
Experiment [6] addresses FLAG-HA-PP4R3β, full length (UniProt Q5MIZ7). As to the kind of experiment: co-IP; HeLa stably expressing FLAG-HA PP4R3β, arrested in prometaphase; FLAG immunoprecipitation, elution analysed by immunoblot for endogenous CDK5.

By UniProt entry, the sequences of proteins in these tests, tags left out.
UniProt Q12888: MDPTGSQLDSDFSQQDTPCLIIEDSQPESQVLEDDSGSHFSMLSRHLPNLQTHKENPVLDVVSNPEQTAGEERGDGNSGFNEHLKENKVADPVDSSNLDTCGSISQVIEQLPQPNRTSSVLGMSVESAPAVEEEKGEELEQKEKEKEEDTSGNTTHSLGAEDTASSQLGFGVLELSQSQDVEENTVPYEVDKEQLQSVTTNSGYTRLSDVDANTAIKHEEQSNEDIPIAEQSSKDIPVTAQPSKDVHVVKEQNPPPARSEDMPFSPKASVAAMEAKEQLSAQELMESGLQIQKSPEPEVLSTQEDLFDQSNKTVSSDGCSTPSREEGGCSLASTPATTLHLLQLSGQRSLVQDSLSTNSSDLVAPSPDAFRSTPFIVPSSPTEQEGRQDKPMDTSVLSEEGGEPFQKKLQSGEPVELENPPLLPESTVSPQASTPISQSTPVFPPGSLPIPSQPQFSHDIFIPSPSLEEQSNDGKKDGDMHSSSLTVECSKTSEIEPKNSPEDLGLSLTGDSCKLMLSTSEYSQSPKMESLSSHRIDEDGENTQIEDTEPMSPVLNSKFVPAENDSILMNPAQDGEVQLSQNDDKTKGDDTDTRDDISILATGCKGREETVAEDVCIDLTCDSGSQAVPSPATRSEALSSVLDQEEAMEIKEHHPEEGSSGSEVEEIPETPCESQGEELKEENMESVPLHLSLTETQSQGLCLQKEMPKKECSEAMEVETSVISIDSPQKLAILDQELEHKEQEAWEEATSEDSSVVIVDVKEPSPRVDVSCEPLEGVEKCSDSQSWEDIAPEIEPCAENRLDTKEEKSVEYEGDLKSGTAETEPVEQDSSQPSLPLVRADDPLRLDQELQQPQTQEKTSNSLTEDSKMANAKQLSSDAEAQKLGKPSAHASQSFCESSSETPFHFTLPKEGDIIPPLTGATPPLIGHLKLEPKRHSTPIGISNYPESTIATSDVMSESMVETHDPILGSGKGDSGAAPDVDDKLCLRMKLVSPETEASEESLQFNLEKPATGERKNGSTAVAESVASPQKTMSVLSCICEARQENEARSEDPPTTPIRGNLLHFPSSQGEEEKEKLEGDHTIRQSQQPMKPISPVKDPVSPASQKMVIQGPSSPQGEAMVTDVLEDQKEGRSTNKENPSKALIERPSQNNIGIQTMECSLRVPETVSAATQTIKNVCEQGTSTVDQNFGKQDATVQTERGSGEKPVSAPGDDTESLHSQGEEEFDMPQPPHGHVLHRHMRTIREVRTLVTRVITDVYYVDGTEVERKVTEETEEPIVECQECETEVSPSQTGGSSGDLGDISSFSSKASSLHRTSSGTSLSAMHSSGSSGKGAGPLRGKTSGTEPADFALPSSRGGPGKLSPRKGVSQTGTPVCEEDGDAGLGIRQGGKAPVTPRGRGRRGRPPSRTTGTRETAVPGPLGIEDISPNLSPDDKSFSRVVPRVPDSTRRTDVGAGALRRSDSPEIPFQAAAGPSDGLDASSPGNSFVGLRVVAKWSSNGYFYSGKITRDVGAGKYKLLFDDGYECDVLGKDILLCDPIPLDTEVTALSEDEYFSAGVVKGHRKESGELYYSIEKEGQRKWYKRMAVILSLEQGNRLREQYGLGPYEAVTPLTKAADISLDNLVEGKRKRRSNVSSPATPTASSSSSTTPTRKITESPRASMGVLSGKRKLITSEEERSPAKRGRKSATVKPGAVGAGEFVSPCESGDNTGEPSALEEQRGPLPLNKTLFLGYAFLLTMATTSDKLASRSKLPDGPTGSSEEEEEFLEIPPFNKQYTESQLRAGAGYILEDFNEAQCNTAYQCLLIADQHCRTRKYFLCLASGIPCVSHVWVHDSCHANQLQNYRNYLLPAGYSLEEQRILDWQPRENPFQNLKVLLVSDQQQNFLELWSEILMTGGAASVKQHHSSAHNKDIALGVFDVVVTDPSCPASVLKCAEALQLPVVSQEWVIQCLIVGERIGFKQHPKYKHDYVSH
UniProt Q5MIZ7: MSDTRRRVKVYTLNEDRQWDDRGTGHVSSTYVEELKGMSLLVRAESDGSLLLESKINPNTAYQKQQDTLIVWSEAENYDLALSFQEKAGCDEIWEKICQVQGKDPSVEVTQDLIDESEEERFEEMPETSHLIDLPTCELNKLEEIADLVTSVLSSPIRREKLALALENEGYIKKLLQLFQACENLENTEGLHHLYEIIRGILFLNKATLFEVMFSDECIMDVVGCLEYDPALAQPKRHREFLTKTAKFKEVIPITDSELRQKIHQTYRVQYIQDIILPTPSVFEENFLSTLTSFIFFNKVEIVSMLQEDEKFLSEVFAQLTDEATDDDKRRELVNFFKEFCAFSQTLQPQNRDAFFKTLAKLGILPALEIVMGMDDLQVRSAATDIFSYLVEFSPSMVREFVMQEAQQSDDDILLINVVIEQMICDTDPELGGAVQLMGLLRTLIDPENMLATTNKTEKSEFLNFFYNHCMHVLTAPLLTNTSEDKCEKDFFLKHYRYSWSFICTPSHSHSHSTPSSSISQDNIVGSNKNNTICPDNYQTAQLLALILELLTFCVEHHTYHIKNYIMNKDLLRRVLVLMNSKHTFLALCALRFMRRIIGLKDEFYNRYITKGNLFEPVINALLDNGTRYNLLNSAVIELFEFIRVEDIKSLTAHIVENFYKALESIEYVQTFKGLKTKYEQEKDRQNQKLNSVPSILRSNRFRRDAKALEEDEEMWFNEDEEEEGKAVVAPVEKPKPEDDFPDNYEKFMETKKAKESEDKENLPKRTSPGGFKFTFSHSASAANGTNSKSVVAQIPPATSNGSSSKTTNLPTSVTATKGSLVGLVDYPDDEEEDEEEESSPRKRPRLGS

Results are given in words; binding and its absence hold for the method and conditions named. Binding seen in cells or lysates may run through a third protein. Some entries that bind do so weakly or less than the wild type.

For “Myc-PP4R3β, full length, wild type (from UniProt Q5MIZ7 1-849)”, the binding result in experiment [1] was “binds”; in the experiment with FLAG-53BP1 [2], “binds weakly”; with FLAG-53BP1 [3], “binds”.

As to “PP4R3β, endogenous in A375-AS cells (from UniProt Q5MIZ7 1-849)”, the figures for the binding result in experiment [4] and in experiment [5] were “no binding” and “binds”, respectively.

For “CDK5, endogenous (from UniProt Q00535 1-292) (enzyme)”, in experiment [6], the binding result was “binds”.

The record behind these values is publication PMC6751209.
